This is an account of results in a collection of fitness landscapes (doi:10.1126/science.1257360).

Some of the results follow.

B1: PhoQ; a variant is named by its letters at X, in order, P23837 (parent)
chain: MKKLLRLFFPLSLRVRFLLATAAVVLVLSLAYGMVALIGYSVSFDKTTFRLLRGESNLFYTLAKWENNKLHVELPENIDKQSPTMTLIYDENGQLLWAQRDVPWLMKMIQPDWLKSNGFHEIEADVNDTSLLLSGDHSIQQQLQEVREDDDDAEMTHSVAVNVYPATSRMPKLTIVVVDTIPVELKSSYMVWSWFIYVLSANLLLVIPLLWVAAWWSLRPIEALAKEVRELEEHNRELLNPATTRELTSLVRNLNRLLKSERERYDKYRTTLTDLTHSLKTPLXXLQXXLRSLRSEKMSVSDAEPVMLEQISRISQQIGYYLHRASMRGGTLLSRELHPVAPLLDNLTSALNKVYQRKGVNISLDISPEISFVGEQNDFVEVMGNVLDNACKYCLEFVEISARQTDEHLYIVVEDDGPGIPLSKREVIFDRGQRVDTLRPGQGVGLAVAREITEQYEGKIVAGESMLGGARMEVIFGRQHSAPKDE

Variants of B1 are the subject of this test. Briefly: enrichment ratio after two sorts for PhoP signalling (ratio (wild type AVST 3.29)); higher = more functional. The note with it: with PhoP (E. coli).
For the variant VMKK, the enrichment ratio was not above 0.25.

In the case of FTQP, the enrichment ratio was not above 0.25.

Take YYEV: the enrichment ratio was not above 0.25.

As to ANCV, the enrichment ratio worked out at 3.79.

VMWC: the enrichment ratio is not above 0.25.

Consider AFMH, for which the enrichment ratio is not above 0.25.

Consider LAFC, for which the enrichment ratio was not above 0.25.

In the case of SLLT, the enrichment ratio is 4.46.

On to AGEI, for which the enrichment ratio is not above 0.25.

As to DYEW, the enrichment ratio was not above 0.25.

With NCHM, the enrichment ratio was not above 0.25.

In the case of MYPY, the enrichment ratio is not above 0.25.

For HFDP, the enrichment ratio was not above 0.25.

WSLL: the enrichment ratio was determined as 7.48.

As to LWHN, the enrichment ratio was not above 0.25.

As to HAPF, the enrichment ratio is not above 0.25.

Take DLRF: the enrichment ratio is not above 0.25.

VTVQ: the enrichment ratio is not above 0.25.

Take GWSA: the enrichment ratio was not above 0.25.

Take SRHT: the enrichment ratio was not above 0.25.

As to PVYR, the enrichment ratio is not above 0.25.

QAWQ: the enrichment ratio is not above 0.25.

Consider RAWH, for which the enrichment ratio was not above 0.25.

TMHD: the enrichment ratio was not above 0.25.

Turning to AQTC, the enrichment ratio amounted to 9.55.

On to YSAR, for which the enrichment ratio is not above 0.25.

Consider IKWV, for which the enrichment ratio is not above 0.25.

Turning to TAFD, the enrichment ratio is not above 0.25.

Regarding VDYS, the enrichment ratio is not above 0.25.

For the variant NMHD, the enrichment ratio is not above 0.25.

For the variant FPTY, the enrichment ratio was not above 0.25.

NNSF: the enrichment ratio was not above 0.25.

For the variant HSRF, the enrichment ratio was not above 0.25.

For IPSD, the enrichment ratio was not above 0.25.

Take QIWE: the enrichment ratio was not above 0.25.

Consider KVEA, for which the enrichment ratio was not above 0.25.

Turning to VNSV, the enrichment ratio is 6.18.

For SIGS, the enrichment ratio worked out at 4.81.

For the variant KTCA, the enrichment ratio is not above 0.25.

Consider QGPQ, for which the enrichment ratio was not above 0.25.

Consider PDPN, for which the enrichment ratio is not above 0.25.

GFLD: the enrichment ratio was not above 0.25.

MLPF: the enrichment ratio was not above 0.25.

Regarding NQYM, the enrichment ratio was not above 0.25.

PLYA: the enrichment ratio is not above 0.25.

Take PFKV: the enrichment ratio was not above 0.25.

Regarding VHVT, the enrichment ratio was not above 0.25.

On to IKAH, for which the enrichment ratio was not above 0.25.

With SDRG, the enrichment ratio was not above 0.25.

With AGDY, the enrichment ratio was not above 0.25.

Take LIPA: the enrichment ratio was not above 0.25.

As to HWCY, the enrichment ratio is not above 0.25.

Turning to PSLR, the enrichment ratio is not above 0.25.

Consider TNCA, for which the enrichment ratio was determined as 8.8.

Regarding TECV, the enrichment ratio was 22.2.

On to PQPR, for which the enrichment ratio was not above 0.25.

On to AIWI, for which the enrichment ratio is not above 0.25.

For the variant LQGP, the enrichment ratio is not above 0.25.

For the variant IPNM, the enrichment ratio is not above 0.25.

Turning to VRMI, the enrichment ratio is not above 0.25.

For AETV, the enrichment ratio came to 22.9.

For the variant YQYN, the enrichment ratio is not above 0.25.

On to PFCQ, for which the enrichment ratio was not above 0.25.

Turning to MPPW, the enrichment ratio was not above 0.25.

As to HKVF, the enrichment ratio is not above 0.25.

WQHV: the enrichment ratio is not above 0.25.

Consider QAFQ, for which the enrichment ratio is not above 0.25.

As to FSEY, the enrichment ratio is not above 0.25.

Consider FHGV, for which the enrichment ratio was not above 0.25.

In the case of MNPD, the enrichment ratio was not above 0.25.

In the case of MAVQ, the enrichment ratio was not above 0.25.

Consider IIGY, for which the enrichment ratio was not above 0.25.

On to GFPV, for which the enrichment ratio is not above 0.25.

EGRF: the enrichment ratio was not above 0.25.

For the variant FLTA, the enrichment ratio is not above 0.25.

For the variant NKHG, the enrichment ratio was not above 0.25.

Take PSQY: the enrichment ratio was not above 0.25.

Regarding MDWR, the enrichment ratio is not above 0.25.

On to WQPV, for which the enrichment ratio is not above 0.25.

As to IQTD, the enrichment ratio was not above 0.25.

MARA: the enrichment ratio is not above 0.25.

With LLYP, the enrichment ratio is not above 0.25.

Consider FQWL, for which the enrichment ratio was not above 0.25.

As to HHHH, the enrichment ratio is not above 0.25.

DLAV: the enrichment ratio is not above 0.25.

On to MNQS, for which the enrichment ratio is not above 0.25.

Regarding GLMW, the enrichment ratio is not above 0.25.

Turning to INFY, the enrichment ratio was not above 0.25.

With NYPE, the enrichment ratio is not above 0.25.

As to AGKF, the enrichment ratio was not above 0.25.

In the case of AHPA, the enrichment ratio is not above 0.25.

Regarding MSTE, the enrichment ratio is not above 0.25.

Turning to HTCM, the enrichment ratio was not above 0.25.

Consider FKEC, for which the enrichment ratio was not above 0.25.

As for WKYR, the enrichment ratio is not above 0.25.

In the case of EYHN, the enrichment ratio is not above 0.25.

With TLCY, the enrichment ratio was not above 0.25.

In the case of EAHD, the enrichment ratio is not above 0.25.

Take TDHE: the enrichment ratio is not above 0.25.

On to NAGW, for which the enrichment ratio was not above 0.25.

As for LLTY, the enrichment ratio is not above 0.25.

For the variant LRHK, the enrichment ratio is not above 0.25.

WEHA: the enrichment ratio was not above 0.25.

Turning to LWVD, the enrichment ratio is not above 0.25.

For FDGQ, the enrichment ratio is not above 0.25.

Consider WDYQ, for which the enrichment ratio is not above 0.25.

Regarding SNRR, the enrichment ratio was not above 0.25.

DKIM: the enrichment ratio is not above 0.25.

For HEDI, the enrichment ratio was not above 0.25.

As to YEGW, the enrichment ratio is not above 0.25.

In the case of MNAM, the enrichment ratio amounted to 1.4.

For the variant LWVS, the enrichment ratio is not above 0.25.

As for YEMP, the enrichment ratio was not above 0.25.

Regarding NGHD, the enrichment ratio is not above 0.25.

On to KYLL, for which the enrichment ratio was not above 0.25.

For VVRV, the enrichment ratio was not above 0.25.

In the case of QEPL, the enrichment ratio is not above 0.25.

Take EAMA: the enrichment ratio is not above 0.25.

Consider LCHG, for which the enrichment ratio is not above 0.25.

Regarding KCKA, the enrichment ratio is not above 0.25.

Turning to FLYF, the enrichment ratio is not above 0.25.

For the variant VIWL, the enrichment ratio was not above 0.25.

WFHR: the enrichment ratio was not above 0.25.

For GIYC, the enrichment ratio amounted to 0.526.

For WYKA, the enrichment ratio was not above 0.25.

In the case of LYVE, the enrichment ratio was not above 0.25.

Take AEKR: the enrichment ratio is not above 0.25.

For the variant TWCD, the enrichment ratio is not above 0.25.

As for GSDI, the enrichment ratio was not above 0.25.

For NMDM, the enrichment ratio was not above 0.25.

With RQDC, the enrichment ratio is not above 0.25.

Turning to SHDW, the enrichment ratio was not above 0.25.

With VGRC, the enrichment ratio is not above 0.25.

Regarding ICNA, the enrichment ratio was not above 0.25.

As to ERVD, the enrichment ratio is not above 0.25.

Turning to EHRC, the enrichment ratio is not above 0.25.

Consider CVSM, for which the enrichment ratio is not above 0.25.

As to LFQV, the enrichment ratio was not above 0.25.

Regarding YFPR, the enrichment ratio was not above 0.25.

With SAIN, the enrichment ratio came to 11.8.

Turning to PYAW, the enrichment ratio was not above 0.25.

With GRPE, the enrichment ratio was not above 0.25.

As for YANR, the enrichment ratio was not above 0.25.

Turning to TRGN, the enrichment ratio was not above 0.25.

With WHQL, the enrichment ratio was not above 0.25.

Regarding SMKS, the enrichment ratio was not above 0.25.

Consider YEMD, for which the enrichment ratio was not above 0.25.

As to PRSK, the enrichment ratio is not above 0.25.

For the variant MACS, the enrichment ratio is not above 0.25.

Consider FRLV, for which the enrichment ratio is not above 0.25.

On to DLVE, for which the enrichment ratio is not above 0.25.

In the case of STTE, the enrichment ratio stood at 1.13.

As to FAGT, the enrichment ratio is not above 0.25.
